How the values were obtained:
[1] = tested on: α-glucosidase from Saccharomyces cerevisiae; assay: Kinetic parameters of α-glucosidase inhibition (Lineweaver–Burk, Michaelis–Menten); type: biochemical; settings: for Vmax: α-glucosidase
Procedure: Kinetic parameters of α-glucosidase and α-amylase inhibition were determined for the leaf extract of C. bullatus. In the kinetic study, the reaction mixtures were prepared according to the protocols described above (Section 4.4 and Section 4.5). In the inhibition assays, reaction substrates (S) were used at different concentrations, including PNPG in the range of 0.28–1.00 mM and soluble starch in the range of 0.26–1.81 mM, for α-glucosidase and α-amylase tests, respectively. The activity of enzymes was evaluated in the absence or presence of different concentrations of the tested extract used as an inhibitor (I). The extract concentrations for the α-glucosidase inhibitory kinetics were 5.0, 6.0, and 9.0 µg/mL, whereas 20.0, 40.0, and 60.0 µg/mL were used for α-amylase. […] The initial rates of reactions (Vo) were calculated from calibration curves constructed using varying concentrations of p-nitrophenol and maltose for the α-glucosidase and α-amylase assay, respectively.
Based on the Lineweaver–Burk graph, two important terms in enzyme kinetics could be determined: Km (Michaelis constant) and Vmax (Maximum velocity). The y-intercept of such a graph corresponds to the inverse of Vmax, while the x-axis intersection represents −1/Km. Vmax and Km could therefore be determined experimentally or calculated from the Lineweaver-Burk equation [26]:(1) 1/V=Km/Vmax × 1/S+1/Vmax where Km is the Michaelis constant; Vmax is the maximum velocity; V is the reaction velocity, and S is the substrate of the enzymatic reaction.
The study of the inhibition type of the tested extract (competitive, noncompetitive, or mixed type) was performed by the comparison of Km and Vmax and their ratio (Km/Vmax) in the presence and absence of the inhibitor (I). The type of inhibition was also assessed based on the graphical view of the Lineweaver–Burk plot (1/V versus 1/S).

[2] = target: α-glucosidase from Saccharomyces cerevisiae; assay: α-Glucosidase inhibitory assay (PNPG substrate); settings: yeast α-glucosidase, PNPG as substrate, mean ± SD (n = 3)

Row | Compound | IC50 α-Glucosidase [2] | also measured
1 | C[C@H]1O[C@H](O[C@H]2[C@H](O)[C@@H](O)[C@@H](O[C@H]3[C@H](O)[C@@H](O)C(O)O[C@@H]3CO)O[C@@H]2CO)[C@H](O)[C@@H](O)[C@@H]1N[C@H]1C=C(CO)[C@@H](O)[C@H](O)[C@H]1O (some centres unmarked) [AR, acarbose] | – | Type Inhibition, α-glucosidase ([1]; Lineweaver–Burk plot): Competitive; Vmax ([1]; inhibitor 110.0 µg/mL): 0.028 ± 0.001^A mM/min; Vmax ([1]; inhibitor 160.0 µg/mL): 0.027 ± 0.001^A mM/min; Vmax ([1]; inhibitor 215.0 µg/mL): 0.029 ± 0.001^A mM/min
2 | O=C(O)CC(OC(=O)/C=C/c1ccc(O)c(O)c1)C(=O)O (centres unmarked) [CAD, caffeoylmalic acid] | 43.70 ± 2.18 ^B µg/mL | –
3 | O=c1c(O[C@@H]2O[C@H](CO)[C@H](O)[C@H](O)[C@H]2O)c(-c2ccc(O)c(O)c2)oc2cc(O)cc(O)c12 [HP, hyperoside] | 283.48 ± 3.47 ^F µg/mL | –
4 | Oc1cc(O)c2c(c1)O[C@H](c1ccc(O)c(O)c1)[C@H](O)[C@H]2c1c(O)cc(O)c2c1O[C@H](c1ccc(O)c(O)c1)[C@H](O)C2 [PB2, procyanidin B2] | 416.37 ± 11.23 ^H µg/mL | –
5 | O=c1c(O[C@@H]2O[C@H](CO)[C@H](O)[C@H](O)[C@H]2O[C@@H]2OC[C@@H](O)[C@H](O)[C@H]2O)c(-c2ccc(O)c(O)c2)oc2cc(O)cc(O)c12 [QPH, quercetin 3-O-β-D-(2″-O-β-D-xylopyranosyl)galactopyranoside] | 311.80 ± 1.97 ^G µg/mL | –

Reference: paper PMC9610465, “The Inhibition of α-Glucosidase, α-Amylase and Protein Glycation by Phenolic Extracts of Cotoneaster bullatus, Cotoneaster zabelii, and Cotoneaster integerrimus Leaves and Fruits: Focus on Anti-Hyperglycemic Activity and Kinetic Parameters” (Molecules, 2022)
